A collection of fitness landscapes (doi:10.1126/science.1257360)
This is one part of the list.

B1: PhoQ; a variant is named by its letters at X, in order, P23837 (parent)
chain: MKKLLRLFFPLSLRVRFLLATAAVVLVLSLAYGMVALIGYSVSFDKTTFRLLRGESNLFYTLAKWENNKLHVELPENIDKQSPTMTLIYDENGQLLWAQRDVPWLMKMIQPDWLKSNGFHEIEADVNDTSLLLSGDHSIQQQLQEVREDDDDAEMTHSVAVNVYPATSRMPKLTIVVVDTIPVELKSSYMVWSWFIYVLSANLLLVIPLLWVAAWWSLRPIEALAKEVRELEEHNRELLNPATTRELTSLVRNLNRLLKSERERYDKYRTTLTDLTHSLKTPLXXLQXXLRSLRSEKMSVSDAEPVMLEQISRISQQIGYYLHRASMRGGTLLSRELHPVAPLLDNLTSALNKVYQRKGVNISLDISPEISFVGEQNDFVEVMGNVLDNACKYCLEFVEISARQTDEHLYIVVEDDGPGIPLSKREVIFDRGQRVDTLRPGQGVGLAVAREITEQYEGKIVAGESMLGGARMEVIFGRQHSAPKDE

Variants of: B1
Test: enrichment ratio after two sorts for PhoP signalling (ratio (wild type AVST 3.29)); higher = more functional
Conditions: with PhoP (E. coli)

| Variant | enrichment ratio |
| --- | --- |
| RLHH | ≤ 0.25 |
| LLQR | ≤ 0.25 |
| SHFC | ≤ 0.25 |
| TMYI | ≤ 0.25 |
| PKQS | ≤ 0.25 |
| HIDR | ≤ 0.25 |
| WYPS | 1.1 |
| PHAK | ≤ 0.25 |
| LTKM | ≤ 0.25 |
| AVQP | ≤ 0.25 |
| EPNN | ≤ 0.25 |
| QGRS | ≤ 0.25 |
| PRAV | 0.412 |
| EYLE | ≤ 0.25 |
| TNGN | 3.75 |
| YAQM | ≤ 0.25 |
| MRYS | ≤ 0.25 |
| YCAK | ≤ 0.25 |
| QGSW | ≤ 0.25 |
| HYMS | ≤ 0.25 |
| PKHP | ≤ 0.25 |
| HMKN | ≤ 0.25 |
| IFTK | ≤ 0.25 |
| FNPF | ≤ 0.25 |

| Variant | enrichment ratio |
| --- | --- |
| KTGW | ≤ 0.25 |
| LCSY | ≤ 0.25 |
| SHIE | ≤ 0.25 |
| GNSE | ≤ 0.25 |
| NAIK | ≤ 0.25 |
| YSDR | ≤ 0.25 |
| GGKI | ≤ 0.25 |
| MFIN | ≤ 0.25 |
| SVKH | ≤ 0.25 |
| VPQH | ≤ 0.25 |
| RNSR | ≤ 0.25 |
| LVPW | ≤ 0.25 |
| TTTM | 19.4 |
| DTFI | ≤ 0.25 |
| YTFH | ≤ 0.25 |
| NYDL | ≤ 0.25 |
| MQFN | ≤ 0.25 |
| HLFF | ≤ 0.25 |
| NNKK | ≤ 0.25 |
| MSAT | 7.26 |
| YCNA | ≤ 0.25 |
| VPPH | ≤ 0.25 |
| SRYM | ≤ 0.25 |
| RYFP | ≤ 0.25 |

| Variant | enrichment ratio |
| --- | --- |
| ISWC | ≤ 0.25 |
| QHYF | ≤ 0.25 |
| RYPW | ≤ 0.25 |
| RQIN | ≤ 0.25 |
| GSPY | ≤ 0.25 |
| ITHV | ≤ 0.25 |
| LWRH | ≤ 0.25 |
| EYMK | ≤ 0.25 |
| TFQQ | ≤ 0.25 |
| QMDV | ≤ 0.25 |
| EEYC | ≤ 0.25 |
| AIIG | 3.91 |
| SSEA | ≤ 0.25 |
| LFNM | ≤ 0.25 |
| IDDV | ≤ 0.25 |
| NHMG | ≤ 0.25 |
| PPFG | ≤ 0.25 |
| TGAT | 18.1 |
| KMPF | ≤ 0.25 |
| TSPQ | ≤ 0.25 |
| KQII | ≤ 0.25 |
| SDRW | ≤ 0.25 |
| WMGE | ≤ 0.25 |
| WYIA | ≤ 0.25 |

| Variant | enrichment ratio |
| --- | --- |
| THHI | 0.474 |
| VGVV | 0.498 |
| RPMS | ≤ 0.25 |
| IMPI | ≤ 0.25 |
| MYFN | ≤ 0.25 |
| FLDI | ≤ 0.25 |
| WDCS | ≤ 0.25 |
| YRVQ | ≤ 0.25 |
| LHFL | ≤ 0.25 |
| IQYN | ≤ 0.25 |
| DRIN | ≤ 0.25 |
| GMLI | 9.73 |
| TLTH | 1.24 |
| VIPG | ≤ 0.25 |
| HIQY | ≤ 0.25 |
| RENH | ≤ 0.25 |
| NRLQ | ≤ 0.25 |
| THRD | ≤ 0.25 |
| NIHI | ≤ 0.25 |
| YFGI | ≤ 0.25 |
| DSMG | ≤ 0.25 |
| VSDP | ≤ 0.25 |
| IQSV | 0.309 |
| GGVD | ≤ 0.25 |

| Variant | enrichment ratio |
| --- | --- |
| GFIF | ≤ 0.25 |
| PNVH | ≤ 0.25 |
| FNCA | ≤ 0.25 |
| AITV | 6.12 |
| FYDN | ≤ 0.25 |
| SRCQ | 1.15 |
| YRWI | ≤ 0.25 |
| PQEH | ≤ 0.25 |
| MQNM | ≤ 0.25 |
| VWRE | ≤ 0.25 |
| TRYS | ≤ 0.25 |
| RAAS | ≤ 0.25 |
| FSME | 0.924 |
| TVLA | 9 |
| SQHI | ≤ 0.25 |
| HMCS | ≤ 0.25 |
| ESLP | ≤ 0.25 |
| MPHT | ≤ 0.25 |
| ITGP | ≤ 0.25 |
| FVSH | ≤ 0.25 |
| TTPD | ≤ 0.25 |
| KNLY | ≤ 0.25 |
| PDDK | ≤ 0.25 |
| SHCW | ≤ 0.25 |

| Variant | enrichment ratio |
| --- | --- |
| PDQT | ≤ 0.25 |
| GLDW | ≤ 0.25 |
| SSGA | 3.11 |
| EMYW | ≤ 0.25 |
| YNYF | ≤ 0.25 |
| PVCR | ≤ 0.25 |
| PFIS | ≤ 0.25 |
| LLPP | ≤ 0.25 |
| HWGY | ≤ 0.25 |
| HVPY | ≤ 0.25 |
| PVYY | ≤ 0.25 |
| LPTM | ≤ 0.25 |
| HGRY | ≤ 0.25 |
| NWWV | ≤ 0.25 |
| FQLF | 6.28 |
| PRWY | ≤ 0.25 |
| ELWT | ≤ 0.25 |
| NKRC | ≤ 0.25 |
| MCVW | ≤ 0.25 |
| TARI | 1.12 |
| AKWV | ≤ 0.25 |
| KPSL | ≤ 0.25 |
| SDSD | ≤ 0.25 |
| NTWI | ≤ 0.25 |

| Variant | enrichment ratio |
| --- | --- |
| FYCK | ≤ 0.25 |
| HHNH | ≤ 0.25 |
| WTID | ≤ 0.25 |
| HVIY | ≤ 0.25 |
| STAV | 5.94 |
| TPAW | ≤ 0.25 |
| WKLK | ≤ 0.25 |
| PFPW | ≤ 0.25 |
| WERM | ≤ 0.25 |
| VIGA | ≤ 0.25 |
| SSMV | 18.9 |
| EMLG | ≤ 0.25 |
| ANAA | 8.15 |
| YGCQ | ≤ 0.25 |
| EPFG | ≤ 0.25 |
| TTPL | 0.341 |
| GNFC | ≤ 0.25 |
| DICI | ≤ 0.25 |
| GDGQ | ≤ 0.25 |
| WMNY | ≤ 0.25 |
| PKWW | ≤ 0.25 |
| DKAC | ≤ 0.25 |
| SEYC | 4 |
| YDRE | ≤ 0.25 |

| Variant | enrichment ratio |
| --- | --- |
| RHCL | ≤ 0.25 |
| EYDA | ≤ 0.25 |
| DWLN | ≤ 0.25 |
| QFLY | ≤ 0.25 |
| MHMH | ≤ 0.25 |
| VGCS | ≤ 0.25 |
| SAQR | ≤ 0.25 |
| PPAV | ≤ 0.25 |
| HNYI | ≤ 0.25 |
| RFLN | ≤ 0.25 |
| HNEK | ≤ 0.25 |
| DGVM | ≤ 0.25 |
| TWGQ | ≤ 0.25 |
| SDFR | ≤ 0.25 |
| LKWL | ≤ 0.25 |
| VDRT | ≤ 0.25 |
| AWRL | ≤ 0.25 |
| VEDK | ≤ 0.25 |
| MPYI | ≤ 0.25 |
| KVNI | ≤ 0.25 |
| HSYP | ≤ 0.25 |
| VCGC | ≤ 0.25 |
| TRRI | 0.557 |
| GWVP | ≤ 0.25 |

| Variant | enrichment ratio |
| --- | --- |
| GPTL | ≤ 0.25 |
| RQST | ≤ 0.25 |
| WMTH | ≤ 0.25 |
| SLKW | ≤ 0.25 |
| HEIG | ≤ 0.25 |
| NDSF | ≤ 0.25 |
| GLTH | ≤ 0.25 |
| LLTC | ≤ 0.25 |
| GNTD | ≤ 0.25 |
| SFFR | ≤ 0.25 |
| ENMH | ≤ 0.25 |
| PRTF | ≤ 0.25 |
| IHRM | ≤ 0.25 |
| PEAR | ≤ 0.25 |
| WHIG | ≤ 0.25 |
| KSKN | ≤ 0.25 |
| DRFN | ≤ 0.25 |
| PTGP | ≤ 0.25 |
| AATQ | 7.77 |
| MITK | ≤ 0.25 |
| VYTF | ≤ 0.25 |
| FNSW | ≤ 0.25 |
| FTYS | ≤ 0.25 |
| FGRI | ≤ 0.25 |

| Variant | enrichment ratio |
| --- | --- |
| QFWA | ≤ 0.25 |
| STTV | 6.32 |
| MKCM | ≤ 0.25 |
| HHTS | ≤ 0.25 |
| KSKC | ≤ 0.25 |
| GMLN | 0.729 |
| MHCF | ≤ 0.25 |
| AVLF | 1.97 |
| SFKD | ≤ 0.25 |
| QNMD | ≤ 0.25 |
| RPMQ | ≤ 0.25 |
| PQVC | ≤ 0.25 |
| SQMT | 22.7 |
| LKQR | ≤ 0.25 |
| FLMQ | ≤ 0.25 |
| FQYG | ≤ 0.25 |
| RNSL | ≤ 0.25 |
| FYIG | ≤ 0.25 |
| NNMK | ≤ 0.25 |
| DKNL | ≤ 0.25 |
| VDMY | ≤ 0.25 |
| GTNN | ≤ 0.25 |
| HHEP | ≤ 0.25 |
| NNIV | ≤ 0.25 |

| Variant | enrichment ratio |
| --- | --- |
| HGAQ | ≤ 0.25 |
| EDGL | ≤ 0.25 |
| KEGT | ≤ 0.25 |
| STHL | 0.507 |
| ILKG | ≤ 0.25 |
| HMDL | ≤ 0.25 |
| ADRW | ≤ 0.25 |
| FPNH | ≤ 0.25 |
| MMCI | ≤ 0.25 |
| SLAM | 6.76 |
| TAFE | ≤ 0.25 |
| GDTV | 13.7 |
| DMID | ≤ 0.25 |
| GKMT | ≤ 0.25 |
| DRRE | ≤ 0.25 |
| RKFV | ≤ 0.25 |
| VCKR | ≤ 0.25 |
| PCIY | ≤ 0.25 |
| ARFE | ≤ 0.25 |
| MVSW | ≤ 0.25 |
| TECM | 31.3 |
| PHAH | ≤ 0.25 |
| HRGD | ≤ 0.25 |
| IINL | ≤ 0.25 |

| Variant | enrichment ratio |
| --- | --- |
| YEHQ | ≤ 0.25 |
| NLKQ | ≤ 0.25 |
| SIMS | 12.1 |
| AMFS | ≤ 0.25 |
| TEKC | ≤ 0.25 |
| TEQL | 5.48 |
| TFAW | ≤ 0.25 |
| EGAK | ≤ 0.25 |
| EEAG | ≤ 0.25 |
| EVIR | ≤ 0.25 |
| KNSY | ≤ 0.25 |
| GMTS | ≤ 0.25 |
| GPSS | ≤ 0.25 |
| VQEG | ≤ 0.25 |
| IHWS | ≤ 0.25 |
| IHEF | ≤ 0.25 |
| GAIQ | 6.62 |
| VGWT | 1.62 |
| GHEV | ≤ 0.25 |
| QQFQ | ≤ 0.25 |
| GICM | 38.3 |
| RNHL | ≤ 0.25 |
| AACP | ≤ 0.25 |
| WEPT | ≤ 0.25 |

| Variant | enrichment ratio |
| --- | --- |
| NADG | ≤ 0.25 |
| GMSP | ≤ 0.25 |
| SACA | 9.67 |
| DTSR | ≤ 0.25 |
| MSEA | ≤ 0.25 |
| AFAI | ≤ 0.25 |
| WAWN | ≤ 0.25 |
| QIKG | ≤ 0.25 |
| SHLP | ≤ 0.25 |
| KQPS | ≤ 0.25 |
| QFKA | ≤ 0.25 |
| DYTR | ≤ 0.25 |
| KGLK | ≤ 0.25 |
| YSVK | ≤ 0.25 |
| DGYQ | ≤ 0.25 |
| VSCE | ≤ 0.25 |
| YWHR | ≤ 0.25 |
| QVMV | ≤ 0.25 |
